Settings: Gallus gallus, Thermal, DSC, Sodium acetate 0.1 M, reversible: Unknown

Lysozyme C wild type (chain not printed)
Tm (pH 3.1): 68.2 °C | Tm (pH 3.7): 75.9 °C
